From US8592455B2 (priority 2008, dated 2013)
Where “and” joins values, the source holds several entries; their conditions need not be identical. Equal entries are not always repeated. Where two headings read alike, the source gives them in different places.

Tests used:
KMS11 cells [1] = conditions: read-out: KMS11-lluc EC50
KMS11-luc xenograft = conditions: mouse, in vivo
KMS11 cells [2] = test: cells; conditions: Homo sapiens, KMS-11, 72 h, read-out: KMS11-lluc EC50
[3] = system: pBad Ser112 phosphorylation; test: animal or person; conditions: Mus musculus, po, read-out: percent inhibition of pBad Ser112 phosphorylation relative to total Bad

Question: For `Nc1cc(F)c(-c2c(F)cccc2F)nc1C(=O)Nc1cnccc1[C@@H]1CC[C@H](O)[C@H](N)C1` (stereo in doubt) [Example 131, 3-amino-N-(4-(3-amino-4-hydroxycyclohexyl)pyridin-3-yl)-6-(2,6-difluorophenyl)-5-fluoropicolinamide], which EC50 (KMS11 cells [1]) is on record?
Answer: Its EC50 is 430 nM.

Question: Which EC50 (KMS11 cells [1]) does the source give for `C[C@@H]1C[C@H](N)C[C@H](c2ccncc2NC(=O)c2nc(-c3c(F)cccc3F)c(F)cc2N)C1` (stereo in doubt) [Example 133, 3-amino-N-(4-(3-amino-5-methylcyclohexyl)pyridin-3-yl)-6-(2,6-difluorophenyl)-5-fluoropicolinamide] here?
Answer: The EC50 was 240 nM.

Question: Which EC50 (KMS11 cells [1]) does the source give for `Nc1cc(F)c(-c2c(F)cccc2F)nc1C(=O)Nc1cnccc1[C@@H]1CC[C@H](O)[C@H](N)C1` [Example 65, 3-amino-N-(4-((1R,3R,4S)-3-amino-4-hydroxycyclohexyl)pyridin-3-yl)-6-(2,6-difluorophenyl)-5-fluoropicolinamide] here?
Answer: Its EC50 is 160 nM.

Question: Which results are given for `C[C@H]1CN(c2ccncc2NC(=O)c2ccc(F)c(-c3c(F)cccc3F)n2)C[C@@H](N)[C@@H]1O` [Example 96, N-(4-((3R,4R,5S)-3-amino-4-hydroxy-5-methylpiperidin-1-yl)pyridin-3-yl)-6-(2,6-difluorophenyl)-5-fluoropicolinamide]?
Answer: tumor growth inhibition (KMS11-luc xenograft): 67% and 96% and 88%; EC50 (KMS11 cells [2]): 30 nM; inhibition at 25 mg/kg ([3]; 1 h): 0%; inhibition at 50 mg/kg ([3]; 1 h): 44%; inhibition at 100 mg/kg ([3]; 1 h): 58%; inhibition at 25 mg/kg ([3]; 8 h): 24%; inhibition at 50 mg/kg ([3]; 8 h): 69%; inhibition at 100 mg/kg ([3]; 8 h): 71%; inhibition at 50 mg/kg ([3]; 24 h): 16%; inhibition at 100 mg/kg ([3]; 24 h): 53%

Question: With `CC1(C)C[C@H](N)C[C@H](c2ccncc2NC(=O)c2ccc(F)c(-c3c(F)cc(O)cc3F)n2)C1` [Example 122, N-(4-((1R,5R)-5-amino-3,3-dimethylcyclohexyl)pyridin-3-yl)-6-(2,6-difluoro-4-hydroxyphenyl)-5-fluoropicolinamide] as the compound, how does the EC50 (KMS11 cells [2]) read?
Answer: The EC50 was 230 nM.

Question: For `COc1cc(F)c(-c2nc(C(=O)Nc3cnccc3[C@H]3C[C@@H](N)CC(C)(C)C3)ccc2F)c(F)c1` [Example 123, N-(4-((1R,5R)-5-amino-3,3-dimethylcyclohexyl)pyridin-3-yl)-6-(2,6-difluoro-4-methoxyphenyl)-5-fluoropicolinamide], which EC50 (KMS11 cells [2]) is on record?
Answer: Its EC50 is 490 nM.

Question: How did the EC50 (KMS11 cells [2]) turn out when `N[C@H]1CCC[C@@H](c2ccncc2NC(=O)c2ccc(F)c(-c3c(F)ccc(O)c3F)n2)C1` [Example 124, N-(4-((1R,3S)-3-aminocyclohexyl)pyridin-3-yl)-6-(2,6-difluoro-3-hydroxyphenyl)-5-fluoropicolinamide] was run?
Answer: Its EC50 is 780 nM.

Question: For `C[C@@H]1C[C@H](N)C[C@H](c2ccncc2NC(=O)c2ccc(F)c(-c3c(F)ccc(O)c3F)n2)C1` [Example 125, N-(4-((1R,3S,5S)-3-amino-5-methylcyclohexyl)pyridin-3-yl)-6-(2,6-difluoro-3-hydroxyphenyl)-5-fluoropicolinamide], which EC50 (KMS11 cells [2]) is on record?
Answer: The EC50 was 410 nM.

Question: Which EC50 (KMS11 cells [2]) does the source give for `C[C@@H]1C[C@H](N)C[C@H](c2ccncc2NC(=O)c2ccc(F)c(-c3c(F)cc(O)cc3F)n2)C1` [Example 128, N-(4-((1R,3S,5S)-3-amino-5-methylcyclohexyl)pyridin-3-yl)-6-(2,6-difluoro-4-hydroxyphenyl)-5-fluoropicolinamide] here?
Answer: Its EC50 is 260 nM.

Question: With `C[C@@H]1C[C@H](N)C[C@H](c2ccncc2NC(=O)c2ccc(F)c(-c3c(F)ccc(F)c3F)n2)C1` [Example 129, N-(4-((1R,3S,5S)-3-amino-5-methylcyclohexyl)pyridin-3-yl)-5-fluoro-6-(2,3,6-trifluorophenyl)picolinamide] as the compound, how does the EC50 (KMS11 cells [2]) read?
Answer: Its EC50 is 1200 nM.

Question: With `Nc1cc(F)c(-c2ccncc2F)nc1C(=O)Nc1cnccc1[C@@H]1CCC[C@H](N)C1` [Example 136, 5-amino-N-(4-((1R,3S)-3-aminocyclohexyl)pyridin-3-yl)-3,3′-difluoro-2,4′-bipyridine-6-carboxamide] as the compound, how does the EC50 (KMS11 cells [2]) read?
Answer: Its EC50 is 6400 nM.

Question: How did the EC50 (KMS11 cells [2]) turn out when `C[C@H]1C[C@@H](c2ccncc2NC(=O)c2ccc(F)c(-c3c(F)cccc3F)n2)C[C@@H](N)[C@H]1F` [Example 139, N-(4-((1R,3R,4S,5S)-3-amino-4-fluoro-5-methylcyclohexyl)-pyridin-3-yl)-6-(2,6-difluorophenyl)-5-fluoropicolinamide] was run?
Answer: The EC50 was 1900 nM.
